Results published in paper PMC5414985.
These are yes or no findings as the source states them, for the method shown. Binding seen in cells or lysates may run through a third protein. Some results given as binding are weak or reduced against the parent protein; the word gives no strength.

Amino acid sequences for entries named in this document (tags omitted). A change or cut given only in a name is not applied to a line headed by its entry. Residues count along the entry.
UniProt Q9Z2D8: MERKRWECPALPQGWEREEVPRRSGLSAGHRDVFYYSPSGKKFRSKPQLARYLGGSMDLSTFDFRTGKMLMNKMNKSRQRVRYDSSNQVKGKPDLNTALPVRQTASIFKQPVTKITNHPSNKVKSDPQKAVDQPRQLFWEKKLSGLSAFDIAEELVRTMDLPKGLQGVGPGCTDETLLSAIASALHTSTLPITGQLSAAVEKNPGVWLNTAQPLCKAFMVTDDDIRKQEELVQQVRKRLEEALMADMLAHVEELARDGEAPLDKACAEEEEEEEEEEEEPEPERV
GST-Mbd3 ΔN92: residues 93-285 of Q9Z2D8
UniProt Q6P2K6: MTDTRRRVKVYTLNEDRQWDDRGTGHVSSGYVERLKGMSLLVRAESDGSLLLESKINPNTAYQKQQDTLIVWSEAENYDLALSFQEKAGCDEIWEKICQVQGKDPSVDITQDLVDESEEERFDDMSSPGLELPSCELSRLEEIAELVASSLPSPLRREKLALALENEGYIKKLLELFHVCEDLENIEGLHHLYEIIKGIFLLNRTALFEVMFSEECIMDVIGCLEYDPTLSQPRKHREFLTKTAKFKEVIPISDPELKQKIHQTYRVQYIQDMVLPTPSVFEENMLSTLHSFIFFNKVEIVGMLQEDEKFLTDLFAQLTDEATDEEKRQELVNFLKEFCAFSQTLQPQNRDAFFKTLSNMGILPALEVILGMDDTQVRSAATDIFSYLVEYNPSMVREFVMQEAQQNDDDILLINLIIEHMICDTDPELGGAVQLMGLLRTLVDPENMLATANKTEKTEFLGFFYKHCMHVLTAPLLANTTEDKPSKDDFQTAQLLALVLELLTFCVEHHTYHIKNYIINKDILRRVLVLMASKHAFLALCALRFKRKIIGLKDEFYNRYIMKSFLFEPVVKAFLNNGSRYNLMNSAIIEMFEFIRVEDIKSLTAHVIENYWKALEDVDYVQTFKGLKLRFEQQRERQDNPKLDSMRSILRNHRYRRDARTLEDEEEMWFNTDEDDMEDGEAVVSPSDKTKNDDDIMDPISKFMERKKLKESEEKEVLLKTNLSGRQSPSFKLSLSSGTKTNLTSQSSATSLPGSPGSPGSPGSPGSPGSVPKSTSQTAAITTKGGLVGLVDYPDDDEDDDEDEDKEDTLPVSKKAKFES
UniProt O09106: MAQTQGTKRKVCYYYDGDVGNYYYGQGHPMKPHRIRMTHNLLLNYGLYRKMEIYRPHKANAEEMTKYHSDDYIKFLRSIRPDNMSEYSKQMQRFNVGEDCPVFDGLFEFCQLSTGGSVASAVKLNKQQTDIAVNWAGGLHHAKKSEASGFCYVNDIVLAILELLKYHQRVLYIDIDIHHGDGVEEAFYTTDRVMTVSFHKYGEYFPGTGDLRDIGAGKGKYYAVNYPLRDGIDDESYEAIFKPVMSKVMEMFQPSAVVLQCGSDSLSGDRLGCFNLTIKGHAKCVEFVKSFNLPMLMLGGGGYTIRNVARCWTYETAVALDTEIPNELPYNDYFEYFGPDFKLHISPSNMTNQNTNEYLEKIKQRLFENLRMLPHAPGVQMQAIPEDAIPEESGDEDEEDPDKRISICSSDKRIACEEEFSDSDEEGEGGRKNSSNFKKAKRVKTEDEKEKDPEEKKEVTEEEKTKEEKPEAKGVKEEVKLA
UniProt Q8K4B0: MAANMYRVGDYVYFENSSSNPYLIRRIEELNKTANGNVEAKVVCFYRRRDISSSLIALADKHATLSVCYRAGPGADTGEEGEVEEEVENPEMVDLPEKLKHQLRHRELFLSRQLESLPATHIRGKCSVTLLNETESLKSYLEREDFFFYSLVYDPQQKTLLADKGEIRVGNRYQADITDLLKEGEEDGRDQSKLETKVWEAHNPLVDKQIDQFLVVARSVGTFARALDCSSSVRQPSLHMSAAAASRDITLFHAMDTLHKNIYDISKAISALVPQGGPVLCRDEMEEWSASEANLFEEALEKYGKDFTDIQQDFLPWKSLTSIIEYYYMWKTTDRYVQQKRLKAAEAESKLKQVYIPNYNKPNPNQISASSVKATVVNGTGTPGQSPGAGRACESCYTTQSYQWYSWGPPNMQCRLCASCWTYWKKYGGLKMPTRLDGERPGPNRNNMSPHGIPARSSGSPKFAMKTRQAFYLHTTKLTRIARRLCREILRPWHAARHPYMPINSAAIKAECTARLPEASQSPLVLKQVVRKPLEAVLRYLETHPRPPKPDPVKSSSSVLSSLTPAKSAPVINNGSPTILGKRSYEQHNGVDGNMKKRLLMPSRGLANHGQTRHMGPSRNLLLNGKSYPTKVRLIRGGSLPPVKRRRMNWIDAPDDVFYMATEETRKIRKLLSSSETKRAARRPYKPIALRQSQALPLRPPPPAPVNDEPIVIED
UniProt Q922R5: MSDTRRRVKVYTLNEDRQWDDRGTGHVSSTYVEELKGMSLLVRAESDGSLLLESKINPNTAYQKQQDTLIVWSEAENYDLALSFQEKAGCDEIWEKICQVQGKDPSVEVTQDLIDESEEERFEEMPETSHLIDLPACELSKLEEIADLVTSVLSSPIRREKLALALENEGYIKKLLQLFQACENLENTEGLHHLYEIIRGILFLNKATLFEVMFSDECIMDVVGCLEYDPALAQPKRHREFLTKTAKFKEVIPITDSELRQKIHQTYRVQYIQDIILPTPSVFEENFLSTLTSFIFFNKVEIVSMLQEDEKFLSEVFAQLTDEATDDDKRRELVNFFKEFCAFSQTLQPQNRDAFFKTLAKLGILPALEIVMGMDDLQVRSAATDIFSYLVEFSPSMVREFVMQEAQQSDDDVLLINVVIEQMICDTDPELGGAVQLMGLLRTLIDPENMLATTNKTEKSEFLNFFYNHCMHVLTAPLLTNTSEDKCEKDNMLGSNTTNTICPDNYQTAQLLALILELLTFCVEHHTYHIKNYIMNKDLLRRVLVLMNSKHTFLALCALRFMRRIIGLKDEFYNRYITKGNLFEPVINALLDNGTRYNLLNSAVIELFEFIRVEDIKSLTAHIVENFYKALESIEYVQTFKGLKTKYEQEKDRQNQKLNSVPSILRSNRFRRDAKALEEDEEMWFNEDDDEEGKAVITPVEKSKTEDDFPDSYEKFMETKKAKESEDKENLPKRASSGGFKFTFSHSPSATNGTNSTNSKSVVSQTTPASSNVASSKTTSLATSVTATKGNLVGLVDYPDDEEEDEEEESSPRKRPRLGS

Assays:
[1] = biological target: HA-tagged Mbd3, full length (mouse) (UniProt Q9Z2D8); assay: co-IP; HEK293T cells transfected with tagged Smek and Mbd3 constructs; IP buffer with 130 mM NaCl, 0.5% Triton X-100, 0.5% NP-40, pH 7.4; antibody overnight at 4°C, Protein A/G beads, immunoblot
GST-Mbd3 (mouse) = GST-Mbd3 (mouse) (UniProt Q9Z2D8); assay: pull-down; GST or GST-Mbd3 proteins on glutathione magnetic beads incubated with lysate of HEK293T cells transfected with Flag-tagged Smek2; immunoblot with Smek2 and Mbd3 antibodies; only the target purified
GST-Mbd3 ΔN92 (mouse) = GST-Mbd3 ΔN92 (mouse) (UniProt Q9Z2D8); assay: as above
[2] = biological target: endogenous Mbd3 (mouse (endogenous in NPCs)) (UniProt Q9Z2D8); assay: co-IP; endogenous proteins in NPC lysates (undifferentiated NPCs in Fig 2E); anti-Mbd3, anti-Smek2 or control IgG; immunoblot
[3] = biological target: endogenous Mbd3 (mouse (endogenous in NPCs)) (UniProt Q9Z2D8); assay: condition: only NPCs under differentiation conditions; co-IP; endogenous proteins in lysates of differentiated NPCs; anti-Mbd3, anti-Smek2 or control IgG; immunoblot

Substance | binding [1] | binding [2] | other results
Flag-tagged Smek1, full length (from UniProt Q6P2K6 1-820) | binds | – | –
HDAC1 (from UniProt O09106 1-482) | – | binds | –
MTA1 (from UniProt Q8K4B0 1-715) | – | binds | –

Now from value to substance, other results behind:

binding [1] | binding [2] | Substance | other results
binds | – | Flag-tagged Smek2 (from UniProt Q922R5 1-820) | binding (GST-Mbd3 (mouse)): binds; binding (GST-Mbd3 ΔN92 (mouse)): no binding
– | binds | endogenous Smek2 (from UniProt Q922R5 1-820) | binding [3]: no binding
